PubChem BioAssay AID624296 (National Center for Advancing Translational Sciences (NCATS), 2012)
Among all 350,000 compounds or so, about 9,900 (2.8%) were called active. The shares of active, inactive and inconclusive entries below differ from those in the screen. The call rests on the fitted dose curve; in most records, active means well fitted activation curve with a large enough effect; inconclusive means small, poorly fitted or top-dose-only effect; inactive means no such curve, though single readings can be large or run the other way. No potency is given beside an inconclusive call; the fits are too rough.

experiment: A quantitative high throughput screen for small molecules that induce DNA re-replication in MCF 10a normal breast cells.; further: nearly all actives have a fitted effect of over 50% in size; on activity, positive = re-replication: % of control where 0% means no effect; conditions: MCF 10A DNA re-replication, Hoechst nuclear intensity, 48 h; activity, positive = re-replication: at 46.1 µM (top of the series)
Potency means the concentration at half of the fitted maximal effect; tags describe the fitted curve by direction and shape.

Compound | Potency | activity, positive = re-replication
COc1cccc(Cn2cnc3c(sc4nc(C)cc(C)c43)c2=O)c1 | inconclusive [activator, partial curve, poor fit] | 
COc1ccc(-c2cc(C(=O)NCc3ccco3)c3ccccc3n2)c(OC)c1 |  | inactive: -8.32%
Cc1cc(C)c[n+](C(C)C(=O)c2ccc(Cl)cc2)c1 (stereo not drawn) | inconclusive [activator, single point] | 
Cc1ccc(Nc2nc3ccccc3c(=O)s2)cc1C |  | inactive: -5.85%
O=C(Nc1ccc2ccccc2c1)C(c1ccccc1)C1CCCC1 (stereo not drawn) | inconclusive [activator, single point] | 
O=C(CC1Sc2ccccc2NC1=O)OCc1cc(=O)oc2cc(O)ccc12 (stereo not drawn) | inconclusive [activator, partial curve, poor fit] | 
O=C(NC(=S)Nc1ccc(Cc2ccncc2)cc1)c1ccccc1F | inconclusive [activator, single point] | 
NS(=O)(=O)c1cccc(NC(=O)COC(=O)CCc2ccccc2)c1 |  | inactive: -29.7%
COc1ccc2occ(C(=O)c3ccc(N)cc3)c2c1 |  | inactive: -2.58%
Cc1ccc(F)cc1NC(=O)N1CCCN(c2ccc(C(F)(F)F)cn2)CC1 | inconclusive [activator, partial curve, poor fit] | 
CCn1c(Oc2ccccc2)nc2c1c(=O)n(C)c(=O)n2C | inconclusive [activator, single point] | 
O=C(Nc1ccccc1N1CCCCC1)c1cccs1 | active: 20.6 µM | 
CCSc1ccc2nnc(-c3cccs3)n2n1 |  | inactive: 3.69%
COc1ccc(S(=O)(=O)N(C)CC(=O)NCc2cccnc2)cc1OC | active: 23.1 µM | 
CC(=O)c1ccc(Nc2nc3ccccc3nc2NS(=O)(=O)c2cccs2)cc1 | active: 14.6 µM | 
Fc1ccccc1N1CCN(C2CCCN(Cc3ccccc3C(F)(F)F)C2)CC1 (stereo not drawn) | inconclusive [activator, partial curve, poor fit] | 
S=c1nc(C23CC4CC(CC(C4)C2)C3)[nH][nH]1 | inconclusive [activator, single point] | 
CCOc1ccc(S(=O)(=O)N2CCC(C(=O)NC3CCCCC3)CC2)cc1 | inconclusive [activator, full curve, poor fit] | 
COCc1ccc(O)c2ncccc12 | active: 7.31 µM | 
Cc1nn(C2CCS(=O)(=O)C2)c(C)c1C=O (stereo not drawn) | inconclusive [activator, single point] | 
CCN(CC)CCCNc1cc(C)nc2cc(-c3cccs3)nn12 | inconclusive [activator, single point] | 
Nc1nc(Sc2ccc([N+](=O)[O-])c3nonc23)c2[nH]cnc2n1 | inconclusive [activator, full curve, poor fit] | 
O=C(COc1ccccc1[N+](=O)[O-])Nc1cccnc1 |  | inactive: -1.62%
OCCc1c[nH]c2ccc(OCc3ccccc3)cc12 |  | inactive: -4.08%
O=C(c1ccccc1)C1CCN(C(=O)c2c(F)cccc2F)CC1 |  | inactive: -0.156%

Compound | Potency | activity, positive = re-replication
CCCCOc1ccc(CSCCN=C(N)N)cc1 | inconclusive [activator, single point] | 
O=C(O)CN1C(=O)C(=O)N(Cc2ccc(Cl)c(Cl)c2)C1=O |  | inactive: 2.61%
COc1ccc(C=NNC(=S)NC23CC4CC(CC(C4)C2)C3)cc1OC | active: 9.2 µM | 
COc1ccc(CCNC(=O)c2sc3cc(C)ccc3c2Cl)cc1 | inconclusive [activator, single point] | 
Cc1cccc(NC(=O)[C@H](Cc2c[nH]c3ccccc23)NC(=O)[C@@H]2Cc3ccccc3CN2)c1 | active: 16.4 µM | 
COc1ccccc1CNC(=O)C(CC(C)C)NC(=O)C1CCC(C)CC1 (stereo not drawn) | inconclusive [activator, single point] | 
COc1ccc(S(=O)(=O)Nc2ccccc2C)cc1 | active: 20.6 µM | 
COc1ccc(Nc2nc(-c3ccccc3)c3ccccc3n2)cc1 |  | inactive: 17.6%
Cc1onc(-c2c(Cl)cccc2Cl)c1NC(=O)NNc1c(Cl)cncc1Cl | inconclusive [activator, single point] | 
COC(=O)c1cn(NC(=O)c2cc([N+](=O)[O-])ccc2F)c(=O)c2ccccc12 | active: 4.61 µM | 
CC12CC(c3ccccc3O1)N(C(=O)c1ccco1)C(=S)N2c1ccc(F)cc1 (stereo not drawn) | active: 11.6 µM | 
COc1ccc(OC)c2c1C(=O)c1ccccc1C2=O |  | inactive: 10.8%
Cc1ccc(S(=O)(=O)CCN2CCN(c3ccccc3)CC2)cc1 | inconclusive [activator, single point] | 
Cc1ccc(C(=O)CSc2nnc(-c3ccco3)n2Cc2ccccc2)cc1 |  | inactive: 13.1%
COCc1nnc(NS(=O)(=O)c2ccccc2)s1 | inconclusive [activator, single point] | 
CN(Cc1ccccc1)C(=O)c1ccc(NC(=O)Cc2ccc(NC(=O)C3CCCN(C(=O)C4CCCCC4)C3)cc2)cc1 (stereo not drawn) | inconclusive [activator, partial curve, poor fit] | 
O=C(COc1ccc2ccccc2c1)N1CCN(c2ccccc2)CC1 | inconclusive [activator, partial curve, poor fit] | 
CSc1nc2cc(Oc3cccc(Cl)c3Cl)c(Cl)cc2[nH]1 | active: 9.2 µM | 
NCCNC[C@@H]1COC2(CCCCCCCCCCC2)O1 | inconclusive [activator, partial curve, poor fit] | 
Cc1cc(/C=N/n2cnnc2)c(C)n1-c1ccc(OCc2ccccc2F)cc1 |  | inactive: -4.71%
CC1CCCN(CCCNC(=O)c2cc3c(Cl)nc4ccccc4c3s2)C1 (stereo not drawn) | inconclusive [activator, single point] | 
CCc1cccc(CC)c1NC(=S)NCCc1c(C)[nH]c2ccc(C)cc12 | inconclusive [activator, partial curve, poor fit] | 
Cc1cc(C)c2nc(N3C(=O)C(O)=C(C(=O)c4ccco4)C3c3cccc(O)c3)sc2c1 (stereo not drawn) | active: 20.6 µM | 
CCOC(=O)Cc1csc(NC(=O)CCCCCN2C(=O)c3ccccc3C2=O)n1 | inconclusive [activator, partial curve, poor fit] | 
COC(C(=O)N/N=C(\C)CC(=O)Nc1ccc(N(C)C)cc1)c1ccccc1 (stereo not drawn) |  | inactive: -10.1%

Compound | Potency | activity, positive = re-replication
C[C@H](CO)N1C[C@H](C)[C@@H](CN(C)C(=O)Nc2ccc3c(c2)OCO3)Oc2c(NC(=O)Nc3ccc(C(F)(F)F)cc3)cccc2C1=O |  | inactive: -17.8%
O=c1nc2sc3ccccc3n2c(=O)n1-c1ccc(Cl)cc1 | inconclusive [activator, single point] | 
O=[N+]([O-])c1ccc(C2=NN(c3ccccc3)C(c3ccco3)C2)cc1 (stereo not drawn) |  | inactive: 3.52%
CCCCNc1c(C(=O)OCC)c(C)nc2c1cnn2CC | inconclusive [activator, single point] | 
COc1cc(/C=N/NC(=O)c2cccnc2)ccc1OCC(=O)Nc1ccc(C)cc1 | inconclusive [activator, partial curve, poor fit] | 
CSc1nsc(/C=C/Nc2ccc(C(=O)O)cc2)c1C#N | active: 5.17 µM | 
COCCSc1ccccc1C(=O)Nc1ccc2c(c1)OCO2 | inconclusive [activator, single point] | 
CN(c1ccccc1)c1ccc(/C=C/[N+](=O)[O-])cc1 | active: 7.31 µM | 
O=C(CSc1nnc(-c2cccs2)n1-c1ccccc1)N1CCCc2ccccc21 | inconclusive [activator, partial curve] | 
O=C(Cc1cccs1)Nc1nnc(-c2ccccc2)s1 | active: 0.651 µM | 
CC(=O)c1cc2c(cc1NC(=O)CN(C)S(=O)(=O)c1cccs1)OCO2 | inconclusive [activator, partial curve, poor fit] | 
C/C(=N\NC(=O)c1c(Br)c(C)nn1C)c1ccc(NC(=O)C(C)Oc2ccc(Cl)cc2C)cc1 (stereo not drawn) | active: 16.4 µM | 
O=C1C=CC(=O)N1c1ccc2c(c1)C(NC(=O)C(F)(F)F)c1ccccc1-2 (stereo not drawn) | inconclusive [activator, single point] | 
O=C(CNc1ccc(F)cc1Cl)Nc1cccc(S(=O)(=O)N2CCCCC2)c1 | inconclusive [activator, single point] | 
COc1ccccc1C(=O)Nc1ccc2c(c1)nc(CCNC(=O)c1ccccc1)n2C | active: 6.51 µM | 
CCOC(=O)C1CCCN(S(=O)(=O)c2ccc3c4c(cccc24)C(=O)N3CC)C1 (stereo not drawn) |  | inactive: 15%
CCN(CC)c1ccc(C=Nc2ccc(N(C)C)cc2)c(O)c1 | inconclusive [activator, single point] | 
O=C(C1=C[C@@H](c2ccc(C(F)(F)F)cc2)C[C@@H](OCc2ccc(CO)cc2)O1)N1CCN(Cc2ccccc2)CC1 | inconclusive [activator, single point] | 
CC(C)Cn1c(=O)c2c(nc3n2CCS3)n(C)c1=O | inconclusive [activator, single point] | 
Cc1ccc2nc(-c3cccc(SC4CCCCC4)c3)c(NC3CCCCC3)n2c1 |  | inactive: 10.7%
COc1cc(OC)cc(C(=O)Nc2ccc(C(=O)c3ccncc3)cc2)c1 | inconclusive [activator, partial curve, poor fit] | 
CC1CCN(c2nnc(-c3cccs3)c3ccccc23)CC1 | inconclusive [activator, single point] | 
CC1CCC(n2c(=S)[nH]c3ccccc3c2=O)CC1 (stereo not drawn) | inconclusive [activator, single point] | 
